Results reported in the GPR68 mutational scans of Howard et al. (2025).
The least precise scores are not listed. Not listed are two conditions whose scores span a narrow range. In variant names, del marks residues removed and ins residues inserted between the two positions. For some of these results: The concentration of ogerin is not given here.

B1: GPR68, Q15743 (parent)
chain: MGNITADNSSMSCTIDHTIHQTLAPVVYVTVLVVGFPANCLSLYFGYLQIKARNELGVYLCNLTVADLFYICSLPFWLQYVLQHDNWSHGDLSCQVCGILLYENIYISVGFLCCISVDRYLAVAHPFRFHQFRTLKAAVGVSVVIWAKELLTSIYFLMHEEVIEDENQHRVCFEHYPIQAWQRAINYYRFLVGFLFPICLLLASYQGILRAVRRSHGTQKSRKDQIQRLVLSTVVIFLACFLPYHVLLLVRSVWEASCDFAKGVFNAYHFSLLLTSFNCVADPVLYCFVSETTHRDLARLRGACLAFLTCSRTGRAREAYPLGAPEASGKSGAQGEEPELLTKLHPAFQTPNSPGSGGFPTGRLA

Columns and labels:
[1] = variants of: B1; experiment: cAMP reporter score (Enrich2 score, wild type = 0); higher = more signal; HEK293T, FACS bins
[2] = variants of: B1; experiment: surface expression score (Enrich2 score, wild type = 0); higher = more signal; HEK293T, FACS bins

| Variant | cAMP reporter score ([1]; pH 5.5) | cAMP reporter score ([1]; pH 6) | cAMP reporter score ([1]; pH 6, modulator: ogerin) | cAMP reporter score ([1]; pH 6.5, modulator: ogerin) | surface expression score [2] |
| --- | --- | --- | --- | --- | --- |
| Q182E | 0.019 | 0.096 | -0.372 | 0.753 | -0.583 |
| Q182C | -0.186 | -0.764 | -0.917 | -0.704 | -1.62 |
| Q182G | 0.572 | -0.656 | -0.25 | -0.974 | 0.15 |
| Q182N | -0.296 | -0.1 | -0.965 | -0.35 | 0.429 |
| A184_I185insG | -1.6 | – | -1.55 | -0.563 | -1.45 |
| R183M | 0.619 | – | -0.868 | -0.41 | -0.981 |
| R183E | -1.17 | – | -0.317 | -0.152 | -2.15 |
| R183W | -0.352 | – | -0.795 | -1.12 | -3.05 |
| R183L | -0.38 | -0.215 | -0.831 | 0.138 | 0.082 |
| R183V | -0.626 | – | -0.06 | – | -0.594 |
| R183P | 0.911 | -0.169 | -1.22 | -0.235 | -0.479 |
| R183N | -0.383 | 1.19 | -0.18 | – | -1.36 |
| R183D | -1.27 | -0.92 | – | -2.96 | -1.72 |
| R183C | 0.306 | 1.08 | 1.02 | 1.4 | – |
| R183K | 1.45 | – | 0.935 | 2.42 | 0.926 |
| R183G | -0.369 | -0.084 | -0.009 | -1.18 | -1.34 |
| R183I | 1 | 1.19 | -0.202 | – | -1.33 |
| R183Q | 0.499 | -1.16 | 0.664 | 0.276 | -0.074 |
| R183S | -0.755 | 1.45 | -0.578 | 0.606 | -0.545 |
| R183T | -0.942 | -0.961 | -1.27 | -1.17 | -1.38 |
| R183F | -0.092 | 0.159 | -0.91 | -0.054 | -0.586 |
| R183A | 0.241 | – | 0.063 | 1.72 | -0.732 |

| Variant | cAMP reporter score ([1]; pH 5.5) | cAMP reporter score ([1]; pH 6) | cAMP reporter score ([1]; pH 6, modulator: ogerin) | cAMP reporter score ([1]; pH 6.5, modulator: ogerin) | surface expression score [2] |
| --- | --- | --- | --- | --- | --- |
| I185_N186insGSG | -0.41 | -0.567 | -0.924 | -1.36 | -3.14 |
| Y188_R189del | -1.31 | -1.36 | -3.36 | -2.04 | -1.86 |
| Q179H | 0.652 | – | -0.215 | -0.723 | 1.23 |
| Q179R | -0.111 | -1.23 | -0.467 | – | 0.746 |
| Q179P | 0.55 | 1.04 | 0.418 | 0.181 | 2.36 |
| Q179M | 0.448 | 0.431 | 0.793 | -0.042 | 1.53 |
| Q179Y | -0.4 | – | – | -1.32 | – |
| Q179V | 0.666 | -0.661 | 0.089 | -1.06 | 0.13 |
| Q179N | -0.215 | 0.019 | -1.65 | -0.509 | 2.03 |
| Q179K | -0.254 | 0.366 | -0.403 | -0.317 | -0.393 |
| Q179L | -0.053 | -0.117 | -0.114 | -0.259 | -0.207 |
| Q179T | -0.884 | -1.16 | -1.42 | -1.46 | 0.608 |
| Q179G | -2 | -0.919 | -0.362 | -0.974 | 1.85 |
| Q179D | -0.968 | -0.617 | -0.578 | -0.908 | 0.579 |
| Q179E | 0.544 | -0.176 | 0.586 | -0.663 | 0.688 |
| Q179I | 0.081 | – | -0.663 | -0.39 | 2.01 |
| Q179S | -0.395 | -0.98 | – | -1.33 | 1.4 |
| Q179W | -0.104 | 0.27 | – | 0.358 | -0.487 |
| Q179F | 0.936 | – | -0.049 | -0.01 | 1.31 |
| I185del | -1.17 | -0.023 | -0.983 | -0.629 | -2.6 |
| Q179_A180del | -1.18 | -1.55 | -1.25 | -1.78 | -2.21 |
| Y188_R189insGS | -1.28 | -1.44 | -1.35 | -1.4 | -2.41 |

| Variant | cAMP reporter score ([1]; pH 5.5) | cAMP reporter score ([1]; pH 6) | cAMP reporter score ([1]; pH 6, modulator: ogerin) | cAMP reporter score ([1]; pH 6.5, modulator: ogerin) | surface expression score [2] |
| --- | --- | --- | --- | --- | --- |
| N186_Y187insGS | -1.63 | -0.408 | -1.45 | -1.38 | -1.52 |
| I185V | 0.666 | -0.943 | 0.566 | -0.706 | 1.21 |
| I185L | 0.925 | 0.192 | -0.18 | -0.343 | 1.23 |
| I185W | 0.958 | – | – | -0.587 | 2.73 |
| I185N | -1.27 | -0.364 | -1.11 | – | -0.587 |
| I185A | 1.72 | 0.028 | 0.681 | 0.854 | 1.87 |
| I185Y | -0.839 | -1.02 | -1.39 | -1.66 | -0.335 |
| I185M | -0.059 | -0.196 | -0.53 | -1.29 | 0.465 |
| I185R | -0.801 | -0.647 | -2.52 | -1.07 | 0.873 |
| I185E | -0.959 | -1.42 | – | -2.06 | 0.04 |
| I185D | -1.28 | -0.585 | -0.477 | -2.1 | – |
| I185Q | -1.04 | -0.655 | -1.03 | -0.391 | 1.54 |
| I185T | 0.099 | -0.209 | -0.706 | -0.938 | 0.638 |
| I185P | 0.818 | 0.416 | 0.536 | 0.102 | -1.13 |
| I185S | 0.438 | -0.378 | 0.493 | -0.111 | 0.099 |
| I185G | -0.736 | -1.61 | -0.286 | 0.215 | -0.824 |
| I185K | -1.73 | -1.22 | -1.82 | -1.4 | 0.162 |
| I185F | -1.06 | -0.328 | -1.6 | -1.25 | 1.02 |
| I185C | -0.986 | – | – | -0.627 | -1.01 |
| Q182_R183insG | 0.07 | -0.284 | -0.527 | -0.137 | -0.438 |
| Y188_R189insG | -1.89 | -1.35 | – | – | -3.39 |
